Data on 123 variants can be found in the RNAGym collection of RNA variant scans (doi:10.7554/elife.90254).

The source gives no read counts; variants with many changes may rest on few reads.

First the molecules themselves.
B1: OR4K15 (parent)
chain: GUUAACGGUCAUAGGCCAUGGAAACUAGGAGCACCAUUUCGCUGCCAGUGAAGAAAUGAACAAAGAAAAUCUGGGCCAGGCAGGCAUCAAAAGAAAUAGUCUUGCGCUCAACCAGAAAGUCUGUAAUCAUUUUAAGGGUA

The variants in this series derive from B1. Put plainly: self-cleavage, relative activity (ratio to wild type); higher = more cleavage; in vitro, sequencing; the parent is a self-cleaving ribozyme.
In the case of A95G U102C U132C, the self-cleavage is 2.43.
The value for U103C A114U A135U was 0.01; that for U108C A111U A126G was 0; that for A111U U122C A126G was 0.05.
The value for A98U C105G G137A was 0.02.
Next, U102C A129G A140G: 1.13; C101U A110C A116G: 0.1; A117G U122C U132A: 0.91.
For A94U U100C U122C, the self-cleavage is 1.91.
Take A98G U108C U122C: the self-cleavage worked out at 0.01.
The value for A96G U100C U120C was 2.53.
For the variant A96G U102C A116U, the self-cleavage was 0.3.
The value for A95G A111G A116G A125G was 0.01.
Next, U97C U102C A111G: 0.01; A116G A118G A126G: 1.02.
Next, A95G A110G A117G: 0.11; U100C A118U A126G: 0.6.
Regarding U103A U108C U131C, the self-cleavage turned out to be 0.
With A118G U130G U132C, the self-cleavage came out at 0.41.
For the variant A118G U132C A140G, the self-cleavage worked out at 1.26.
Next, A116G U122C U124A: 0.47.
As to A98G C101U U120G, the self-cleavage worked out at 0.04.
The value for U120C U124C A126U U127A was 0.49; that for G99A U100C A118G was 1.87; that for A116U A117G U130C was 0.01.
The value for U102C U120C U127C was 1.51; that for U103C A114C A126U was 0; that for A118G U120C U132C was 0.4.
The value for A96U U97A A110U A118U was 0.38; that for A116G A118G C121U was 0.48.
Consider A95G A116G U132C, for which the self-cleavage turned out to be 1.09.
Regarding A95G A117G U122A, the self-cleavage was 1.7.
Next, A111G U130C A134U: 0.02; A125G A126U A129C: 0.8.
The value for A98G A110G U132C was 0.05.
The value for A94U U120C A125U was 1.41; that for U103C U124C G136A was 0.23; that for U100A A116G A135G was 0.09.
Turning to A117G U124C A135G, the self-cleavage stood at 1.13.
The value for G123A A126G U133C A134G was 0.
The value for U102C A126U U130C was 1.75.
Next, A116G U132A A140G: 0.2; A111G C121U U124A: 0.01; A95U U103C A118G: 0.89.
A111U U124G U131C: the self-cleavage came out at 0.05.
The value for U124C A126U G138A was 0.82; that for U97C A135G G138U was 1.06.
Next, U102C A114U U124A: 0.04; A114G U120C A126G U132C: 0.03; A111G A116G U124C: 0.01.
For A98U A118G U124C, the self-cleavage was determined as 2.59.
Next, C109A A126G U133C: 0.13; U108C U120C C128U: 0.01.
The value for U102G U130C U131C was 0.01; that for A117G A118G A129G was 0.38.
In the case of A110G A117G A118C U132C, the self-cleavage amounted to 0.
Next, U102C A117U U139C: 1.02; U108C U127A U139A: 0.01; U103C A126G U131C: 0.4.
Next, A96C U108C A118G: 0.01.
Regarding A114U U120C C121A, the self-cleavage came out at 0.1.
Next, U108C A126G A140U: 0.01; U100A U124C A129G: 0.1.
On to U102C A117G U132C, for which the self-cleavage amounted to 2.24.
The value for A95G A117G A125G was 1.07; that for A116G A117G A126U was 0.5.
Next, A96G U100C G106A U131C: 0; A96G U103C U122C: 0.39.
A110U A118G A135G G138A: the self-cleavage worked out at 0.49.
The value for A110G A117G A118G was 0.16; that for A95U A98G A135U was 1.61; that for U103C U127C U132C was 0.42.
As for A95U U103G A117G, the self-cleavage was 0.
The value for U122C A129C U131C was 0.82; that for U102A G115C A116G U122C was 0.05.
The value for A96G U103C A114U was 0.
For the variant A95C G119U U130G, the self-cleavage worked out at 0.55.
The value for G106A A111G U122C was 0; that for A96G A129G U132C was 0.96; that for G99A U102C U130A was 1.
The value for A95G C107G U130A U132C was 0; that for A114G A118G G123A was 0.25.
Turning to A96G U100C A118G A129C, the self-cleavage worked out at 1.88.
The value for U97C A117G U139A was 2.06; that for A117G A118U A135G was 0.81.
The value for U108C A118G U124A was 0; that for A96G A118G A126G was 1.02; that for A96U A135U A140U was 1.58.
As for U122C A126U U131C, the self-cleavage is 0.92.
As for U122C A129G A140G, the self-cleavage is 1.02.
The value for A94U A95G A135G was 1.26; that for A110G A117G U122A was 0.31; that for U103A A116G U131C was 0.29.
The value for A95G U97C A98U U103A U131C A135G was 0.03; that for A114G A117G U131C was 0.11; that for A98G U103C A111G was 0.02.
The value for C101U A118G C128A was 0.01; that for U102G U103C A116U was 0.03.
With A126G U127C A140G, the self-cleavage is 0.68.
Next, U97C A110C A111U: 0.
The value for A96G A125G U131C was 0.17.
The value for U108C A126G U132C A134G was 0; that for A95G U103C U130C was 0.38; that for A111G A114G A125G was 0.
U103C U124A U130C: the self-cleavage came to 0.17.
On to G115A A118U U127A, for which the self-cleavage was determined as 0.05.
Consider U100A A126G U130C, for which the self-cleavage is 0.22.
The value for A95G U108C A118G C121U was 0.01; that for U100C A111G A118G was 0.01; that for A96U U103C U122A U127C was 0.78.
For the variant A111G A114C U122C, the self-cleavage was determined as 0.
As for A98G U108C A117G, the self-cleavage was found to be 0.01.
As to C105U U120A U130C, the self-cleavage came to 0.01.
The value for U103C A126U U131C was 1.16; that for U102G U122C U131C U132C was 0.33.
The value for G99U U100C A116G A118U was 0.04; that for A96U A111U G123A U139C was 0.12; that for A111G A118U A126G U132C was 0.
In the case of U100C U127C G137U, the self-cleavage turned out to be 1.5.
The value for A98U U108C U132C was 0.01; that for U108A A111G U122C was 0.
Turning to A116G U122C A125G, the self-cleavage was 0.23.
The value for C109U A118G A126G was 0.11.
